The supplement of paper PMC11417369
± gives the standard deviation of the averaged measurements. This is one part of the list.

Test system: PfAP2-LT AP2 domain (GST-tagged)
Assay: gcPBM binding intensity (ln(normalized median fluorescence intensity)); higher = stronger DNA binding
Outline: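 Binding intensity is defined as the maximum Masliner-normalised natural-log median intensity across replicate spots for either probe orientation. It was measured on an Agilent 4 × 180k array of primer-extended double-stranded 36-bp intergenic genomic probes and negative controls, to which GST-tagged P. falciparum DNA-binding domains made in E. coli were applied for 1 h in 1× PBS with 1% milk, 0.2 mg/ml BSA, 0.5% salmon testes DNA and 0.03% Triton X-100. Detection was by Alexa488 anti-GST antibody and scanning at 488 nm.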

Sequence | gcPBM binding intensity (ln)
CAAATTTTTAAAAATGCATGTTCATCCATCCCATAT [TGCATGCA_site467] | 8.68 ± 0.47
TTTGTATGATCATAAAGTACTAATTTACATTCAGCA [XGTACX_site8596] | 8.66 ± 0.39
ATATATATATATAGAAGTACTCTTATATATTTTATA [XGTACX_site1384] | 8.91 ± 0.21
GATATGGAATATATGTGTACATATATATATATTATA [XGTACX_site1724] | 8.91 ± 0.41
AAAAAAAAAAAAAATACACACACATAAAAAAAAAAA [CACACA_site8555] | 9.52 ± 0.54
GTAGAATCAGTATTCACACATAAATGTATCCAAATG [CACACA_site5395] | 8.91 ± 0.41
ATATATGAAAATATATGTACACAACATATAAAATAG [XGTACX_site5132] | 9.08 ± 0.42
TTTTCATTCTTATATAAATATTATTTTATATAAAAT [GTGCAC_negctrl_site674] | 8.24 ± 0.47
AATTATATACCATGCACACAAATATTCATACAGGAA [CACACA_site4057] | 9.16 ± 0.4
AAAAATATATATATATTTCTTCTTTGTTAAAATGTA [CACACA_negctrl_site1459] | 8.32 ± 0.42
TATATACTTATATACTGTACTCATCATCTTTTAAAG [XGTACX_site6099] | 8.67 ± 0.42
AAAATATATCAAAACACACTCACATATAATACTTAC [CACACA_site6031] | 9.11 ± 0.37
TTTTTTTTTTTTTAAACATGCAAAATATATAATTTT [TGCATGCA_site633] | 8.16 ± 0.34
TAATATATCTATAATACACACTATTCTAATCACATA [CACACA_site6731] | 8.72 ± 0.41
TAGAAACTATGTAATGCACACCAAAATAAAATTATT [CACACA_site8578] | 8.95 ± 0.45
TTTTGGATACTTCATTTGTCCTGTTTTTTTTTTTTA [CACACA_negctrl_site399] | 8.74 ± 0.49
TTTTAAAAAATAAAATATTATTGAAGTAAAATATGA [CACACA_negctrl_site758] | 8.21 ± 0.49
ATATACTATTAACCACATATGTGTGTTAATTTATAT [GTGCAC_negctrl_site315] | 9.04 ± 0.39
TTGAACCCCACTAACACACACACGCACGCTCAGAAA [CACACA_site2983] | 9.74 ± 0.23
TGCTATTTCATATTCTGTACTAAAACAAGATAATAA [XGTACX_site3852] | 8.31 ± 0.41
ATATTAATTATAACTTGTACGTAAAAGGAAAACAAT [XGTACX_site3269] | 8.81 ± 0.45
TTTTTAATATTGTATGCATGTCGTAATAAAAAATTT [TGCATGCA_site259] | 8.38 ± 0.36

Sequence | gcPBM binding intensity (ln)
AACACACACATATATATATATATATATATATATATA [GTGCAC_negctrl_site573] | 10.5 ± 0.13
ATAATAAACATATATGTACACACATATACATATATA [CACACA_site8924] | 9.02 ± 0.4
TCCTTAAAAAAACCTTAACACACATAAACTATAATT [CACACA_site9001] | 8.65 ± 0.4
TTTTTTTTTAAGTTTGCACACATGGAAGACAAAAAT [CACACA_site2505] | 8.77 ± 0.28
ATGAATGAATACGTTTTACACACTTGAATATAATTT [CACACA_site8237] | 8.87 ± 0.42
TATTTCACAAAAAAAAAAAAAAAAAAGAAGCAAAAA [CACACA_negctrl_site1040] | 8.24 ± 0.6
AACATAACAAAAAAAAAAAAAAATATATATATATAT [TGCATGCA_negctrl_site370] | 9.56 ± 0.29
GTATATTGTACCATCACACATGTAAAACATAGATGT [CACACA_site5359] | 8.94 ± 0.43
TATTTTATATACAGTGGTACTTTTTTTTTTTTTTTT [XGTACX_site2475] | 8.55 ± 0.69
AAAAAAAAAAAAAAATCACACACAATATGAATTTAT [CACACA_site8100] | 8.93 ± 0.47
ACATATATATTATAAGCATGCATGAGAAAATTTTTA [TGCATGCA_site1054] | 8.98 ± 0.41
AAAAAAAAAAAAAAAACACACATTTGAAGAAAAAAA [CACACA_site7389] | 8.58 ± 0.51
AATTGCTTCAAAATTAAACACACACTAATAAAAAAA [CACACA_site8855] | 8.93 ± 0.42
TAATACATAAATAATGTGCACATGGAAATATATCTT | 9.21 ± 0.43
TATAACTATGGGTGTACACATTAATCGTTTTTCTTT [CACACA_site5196] | 8.82 ± 0.47
TATTGTAAAAAAGCAAAATTTATCACCTCCTTATTT [CACACA_negctrl_site172] | 8.5 ± 0.35
TGTAATACATGTTGTTGTACAATATCTTTAACTTTT [XGTACX_site1219] | 8.84 ± 0.45
CCACTAAAGGCATATACACACATTTTTTAAATTGCC [CACACA_site2839] | 8.98 ± 0.36
TACACAAAAATAAACACACACACATATAAATAAATA [CACACA_site6599] | 9.76 ± 0.3
TTATGGAAAAATATAACACACAATGATTTTTTATAA [CACACA_site1831] | 8.66 ± 0.41
TTTTCGCTTTTATAAAATTATATGAAAAAACTAAAA [XGTACX_negctrl_site139] | 8.01 ± 0.33
ATTTATATAAAATTAAAATAATACAAATTTATTCAT [GTGCAC_negctrl_site305] | 8.31 ± 0.43

Sequence | gcPBM binding intensity (ln)
TTTTTTACATTCTGCACACAATTTATTTTTTTTTTT [CACACA_site4188] | 9.13 ± 0.45
AAAATTATGCAGTAGGTGCAATACCCTCGGCTTTTT [GTGCAC_site9556] | 8.79 ± 0.39
TTTTTTTTTTTTTTTGGTACACATTTTGGTTAATGG [XGTACX_site5109] | 8.65 ± 0.42
ATAAAAAGGTTTAAAAAAAAAAAAAAAAAAAAAAAA [CACACA_negctrl_site412] | 8.04 ± 0.5
CTTGTGCTTTATAGGGTGCACATTTTGTTTTGGTAA [GTGCAC_site9899] | 8.8 ± 0.45
TTATTAATTATATATAGTACACATTTCACAGATGGG [XGTACX_site2349] | 8.68 ± 0.34
TGAACACATACATACACACACACAAAAAAAAAAAAA [CACACA_site392] | 9.76 ± 0.4
AAAAAAAAACACGCATGTACATAAAAATAATCATAC [XGTACX_site1086] | 9.43 ± 0.49
TTATTTATGAGGGTGACACACAAAAGAGTGTTAAGA [CACACA_site277] | 8.8 ± 0.54
AAATAAAATAAAATAAAATAAAATAAAATAAAATAA [XGTACX_negctrl_site142] | 8.29 ± 0.67
TATTTCAAATGTTATGTGCACATATTAATCCTACTT [GTGCAC_site9738] | 8.86 ± 0.43
AATATCTGAAAATAAAGTACAAACATATTATAAATA [XGTACX_site5738] | 8.84 ± 0.52
AATAATAATTTAAAAAGTACATTCTAATAAACACGT [XGTACX_site1444] | 8.78 ± 0.52
TACTTATTTGATTGGGTGCATATATATAGTATGTAT [GTGCAC_site9845] | 8.96 ± 0.35
AATGAATAAATAAACACACACACATATATATATATG [CACACA_site18] | 9.86 ± 0.21
ATTATTGCAATTTAATGTACATAATACAAATTTGCC [XGTACX_site2729] | 8.89 ± 0.45
TATACGTATACCTATACACACATATATATATATATA [CACACA_site1273] | 9.85 ± 0.16
TATATTCAAAAAAATTCATTTCTGATTTTTTTTTTT [CACACA_negctrl_site1085] | 8.3 ± 0.62
TGAAAAAAAAAATGCACACGCATACAGATAATATGT [CACACA_site4526] | 9.27 ± 0.45
AATAATAATAGAAACACACACACATTTTTAAGAATA [CACACA_site6692] | 9.71 ± 0.11
GATGAAATATCATTACGTACACAATAGTTTGTATTT [XGTACX_site5143] | 8.98 ± 0.42
AACATATAAAAATGTGCACACACACCCATATATATA [CACACA_site1525] | 9.79 ± 0.3

Sequence | gcPBM binding intensity (ln)
TATCTTAACAATTAGTGTACAGATAACCAATTAAAA [XGTACX_site3184] | 8.55 ± 0.39
ATAATAAATGATAGCACACATATGTACATAAATACA [CACACA_site4634] | 9.24 ± 0.31
TGAAGGTTTCAAAAACGTACAAAAAAAAATGTTAGT [XGTACX_site8803] | 8.82 ± 0.49
TTTTTTTTTTATGGTACACACACGCGTATGGTTGCA [CACACA_site1876] | 9.36 ± 0.41
TTTAGAAATAAATACACACATACATTTTTGTATACA [CACACA_site718] | 8.74 ± 0.4
TAAAATAAAAATATAGTGCACAGATTTTGATATTTT [GTGCAC_site9696] | 8.77 ± 0.47
CTTTGTGGTATAGATACACACTATATTAAGATGAAC [CACACA_site5215] | 8.78 ± 0.37
CACATTATGTATCATACACACAAATAGATATATAAC [CACACA_site6434] | 9.38 ± 0.3
ACTTTTATTCGCTTACGTACATATATTATATATTAT [XGTACX_site4459] | 9.44 ± 0.48
AAAAGAAAATATATGTGTACTAAAATATATATATAT [XGTACX_site3817] | 9.04 ± 0.36
TTTAAAGTAATAAAGTGTACAAAAATAAATTCAGCT [XGTACX_site8651] | 9.12 ± 0.54
TACCTACACTTTTGGAGTACAATTAAAAAAAAAAAA [XGTACX_site1403] | 8.38 ± 0.46
GTTTATTAAACATTAGTGCAATTTTAATCCATTCTA | 8.39 ± 0.45
CAAATCAAAATTAATTAACACACAATTTTAATATTC [CACACA_site8641] | 8.7 ± 0.44
TTCTTTGTAGTATATTAACACACAACTGTTTATAAT [CACACA_site9305] | 8.97 ± 0.4
AAATAGAGAAATACAAGTACATACTAAACCAATCTA [XGTACX_site2780] | 9.03 ± 0.4
TATAATGTTGATAATAGTACGTATGAGTTCAAAAAA [XGTACX_site988] | 8.7 ± 0.57
AAAGGATATAATACCATACACACATTTATAAAATAA [CACACA_site1931] | 9.06 ± 0.49
AAATCATGTTGAAGGGGTACAAAATATGTAATGTTG [XGTACX_site6222] | 8.94 ± 0.51
ATATTATATATTTGATGTACATTGAATGAGAGAGAA [XGTACX_site3324] | 8.82 ± 0.49
TATATATATATATAATGTACAGAAAAAAAAAAAAAA [XGTACX_site6141] | 8.76 ± 0.45
TTAATCCTTTTTAAAAGTACACATATATATATATAT [XGTACX_site962] | 9.075 ± 0.078
